Measured values taken from the supplement of paper PMC8728848.
The other results are listed elsewhere or left out.

Key:
Test in all cases: glycan array binding signal (z-score within array); higher = stronger binding
Details in all cases: glycan notation: IUPAC condensed, linker removed
[1] = target: GlcNAc(b1-3)Gal(b1-4)GlcNAc(b1-3)[GlcNAc(b1-3)Gal(b1-4)GlcNAc(b1-3)]GalNAc
How it was run: (§1)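 The binding signal is a Z-score computed within each array and averaged over linkers. Arrays of the same protein sequence at different concentrations or buffers were also averaged together. Data originate from 3228 arrays in the Consortium for Functional Glycomics database, kept only where the protein sequence was available.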

[2] = target: GlcNAc(b1-3)Gal(b1-4)GlcNAc(b1-6)[Gal(b1-3)]GalNAc
How it was run: as §1

[3] = target: GlcNAc(b1-3)Gal(b1-4)GlcNAc(b1-6)[GlcNAc(b1-3)Gal(b1-3)]GalNAc
How it was run: as §1

[4] = target: GlcNAc(b1-3)Gal(b1-4)GlcNAc(b1-6)[GlcNAc(b1-3)]Gal(b1-4)GlcNAc
How it was run: as §1

[5] = target: GlcNAc(b1-3)GalNAc
How it was run: as §1

[6] = target: GlcNAc(b1-3)Man
How it was run: as §1

[7] = target: GlcNAc(b1-3)[GlcNAc(b1-4)][GlcNAc(b1-6)]GlcNAc
How it was run: as §1

[8] = target: GlcNAc(b1-3)[GlcNAc(b1-6)]Gal(b1-4)GlcNAc
How it was run: as §1

[9] = target: GlcNAc(b1-3)[GlcNAc(b1-6)]GalNAc
How it was run: as §1

[10] = target: GlcNAc(b1-3)[GlcNAc(b1-6)]GlcNAc
How it was run: as §1

[11] = target: GlcNAc(b1-3)[GlcNAc(b1-6)]GlcNAc(b1-4)GlcNAc
How it was run: as §1

[12] = target: GlcNAc(b1-4)Gal(b1-4)GlcNAc
How it was run: as §1

[13] = target: GlcNAc(b1-4)GlcNAc
How it was run: as §1

[14] = target: GlcNAc(b1-4)GlcNAc(b1-4)GlcNAc
How it was run: as §1

[15] = target: GlcNAc(b1-4)GlcNAc(b1-4)GlcNAc(b1-4)GlcNAc(b1-4)GlcNAc
How it was run: as §1

[16] = target: GlcNAc(b1-4)GlcNAc(b1-4)GlcNAc(b1-4)GlcNAc(b1-4)GlcNAc(b1-4)GlcNAc
How it was run: as §1

[17] = target: GlcNAc(b1-4)[GlcNAc(b1-6)]GalNAc
How it was run: as §1

[18] = target: GlcNAc(b1-6)Gal(b1-4)GlcNAc
How it was run: as §1

[19] = target: GlcNAc(b1-6)GalNAc
How it was run: as §1

[20] = target: GlcNAc6S(b1-3)Gal(b1-4)GlcNAc
How it was run: as §1

[21] = target: Kdn(a2-3)Gal(b1-3)GalNAc
How it was run: as §1

[22] = target: Kdn(a2-3)Gal(b1-3)GlcNAc
How it was run: as §1

[23] = target: Kdn(a2-3)Gal(b1-4)Glc
How it was run: as §1

[24] = target: Kdn(a2-3)Gal(b1-4)GlcNAc
How it was run: as §1

[25] = target: Kdn(a2-3)Gal(b1-4)[Fuc(a1-3)]GlcNAc
How it was run: as §1

[26] = target: Kdn(a2-6)Gal(b1-4)GlcNAc
How it was run: as §1

[27] = target: Man(a1-2)Man(a1-2)Man(a1-3)Man
How it was run: as §1

[28] = target: Man(a1-2)Man(a1-2)Man(a1-3)[Man(a1-2)Man(a1-3)[Man(a1-2)Man(a1-6)]Man(a1-6)]Man(b1-4)GlcNAc(b1-4)GlcNAc
How it was run: as §1

[29] = target: Man(a1-2)Man(a1-2)Man(a1-3)[Man(a1-2)Man(a1-6)[Man(a1-3)]Man(a1-6)]Man(b1-4)GlcNAc(b1-4)GlcNAc
How it was run: as §1

[30] = target: Man(a1-2)Man(a1-2)Man(a1-6)[Man(a1-3)]Man
How it was run: as §1

[31] = target: Man(a1-2)Man(a1-3)Man
How it was run: as §1

[32] = target: Man(a1-2)Man(a1-3)[Man(a1-2)Man(a1-6)]Man
How it was run: as §1

[33] = target: Man(a1-2)Man(a1-3)[Man(a1-2)Man(a1-6)]Man(a1-6)[Man(a1-2)Man(a1-2)Man(a1-3)]Man
How it was run: as §1

[34] = target: Man(a1-2)Man(a1-3)[Man(a1-2)Man(a1-6)]Man(a1-6)[Man(a1-2)Man(a1-2)Man(a1-3)]Man(b1-4)GlcNAc(b1-4)GlcNAc
How it was run: as §1

[35] = target: Man(a1-2)Man(a1-3)[Man(a1-3)[Man(a1-6)]Man(a1-6)]Man(b1-4)GlcNAc(b1-4)GlcNAc
How it was run: as §1

[36] = target: Man(a1-2)Man(a1-3)[Man(a1-6)]Man(a1-6)[Man(a1-2)Man(a1-3)]Man(b1-4)GlcNAc(b1-4)GlcNAc
How it was run: as §1

[37] = target: Man(a1-2)Man(a1-6)[Man(a1-3)]Man(a1-6)[Man(a1-2)Man(a1-2)Man(a1-3)]Man
How it was run: as §1

B1: UEA-I (Ulex europaeus), P22972 (protein)
chain: SDDLSFKFKNFSQNGKDLSFQGDASVIETGVLQLNKVGNNLPDETGGIARYIAPIHIWNCNTGEVASFITSFSFFMETSANPKAATDGLTFFLAPPDSPLRRAGGYFGLFEDTKDNDSSYQTVAVEFDTIGSPVNFDDPGFPHIGIDVNRVKSINAERWNKRYGLNNVANVEIIYEASSKTLTASLTYPSDQTSISVTSIVDLKEILPEWVSVGFSGGTYIGRQATHEVLNWYFTSNLINTNS
With B1 as the binder, how does the “glycan array binding signal (z-score)” value [1] read?
Its value is -0.162.

And the “glycan array binding signal (z-score)” value [2]?
The value was -0.246.

And the “glycan array binding signal (z-score)” value [3]?
The value was -0.232.

What about the “glycan array binding signal (z-score)” value [4] of the same binder?
The value was -0.021.

And the “glycan array binding signal (z-score)” value [5]?
Its value is -0.172.

And the “glycan array binding signal (z-score)” value [6]?
The value was -0.085.

And the “glycan array binding signal (z-score)” value [7]?
The value was -0.184.

What about the “glycan array binding signal (z-score)” value [8] of the same binder?
The value was -0.266.

And the “glycan array binding signal (z-score)” value [9]?
Its value is -0.17.

And the “glycan array binding signal (z-score)” value [10]?
The value was -0.086.

What about the “glycan array binding signal (z-score)” value [11] of the same binder?
Its value is -0.258.

And the “glycan array binding signal (z-score)” value [12]?
The value was -0.268.

And the “glycan array binding signal (z-score)” value [13]?
The value was 0.114.

And the “glycan array binding signal (z-score)” value [14]?
Its value is 0.185.

And the “glycan array binding signal (z-score)” value [15]?
Its value is 0.241.

And the “glycan array binding signal (z-score)” value [16]?
The value was 0.202.

What about the “glycan array binding signal (z-score)” value [17] of the same binder?
Its value is -0.231.

What about the “glycan array binding signal (z-score)” value [18] of the same binder?
The value was -0.171.

What about the “glycan array binding signal (z-score)” value [19] of the same binder?
The value was -0.189.

What about the “glycan array binding signal (z-score)” value [20] of the same binder?
Its value is -0.197.

And the “glycan array binding signal (z-score)” value [21]?
The value was -0.152.

What about the “glycan array binding signal (z-score)” value [22] of the same binder?
The value was -0.222.

What about the “glycan array binding signal (z-score)” value [23] of the same binder?
The value was -0.155.

What about the “glycan array binding signal (z-score)” value [24] of the same binder?
Its value is -0.192.

And the “glycan array binding signal (z-score)” value [25]?
The value was -0.105.

And the “glycan array binding signal (z-score)” value [26]?
Its value is -0.189.

And the “glycan array binding signal (z-score)” value [27]?
The value was -0.169.

And the “glycan array binding signal (z-score)” value [28]?
The value was -0.378.

What about the “glycan array binding signal (z-score)” value [29] of the same binder?
The value was -0.469.

And the “glycan array binding signal (z-score)” value [30]?
Its value is -0.187.

And the “glycan array binding signal (z-score)” value [31]?
Its value is -0.212.

And the “glycan array binding signal (z-score)” value [32]?
Its value is -0.194.

What about the “glycan array binding signal (z-score)” value [33] of the same binder?
The value was -0.191.

And the “glycan array binding signal (z-score)” value [34]?
The value was -0.158.

And the “glycan array binding signal (z-score)” value [35]?
Its value is -0.419.

And the “glycan array binding signal (z-score)” value [36]?
Its value is -0.133.

And the “glycan array binding signal (z-score)” value [37]?
The value was -0.061.
